Measured values reported in PubChem BioAssay AID743279 (National Center for Advancing Translational Sciences (NCATS), 2014).
Several values for one entry are separate records, joined by “and”; a condition that tells them apart may be missing. Identical values can stand only once. In all, about 360,000 compounds went through this assay and about 17,000 (4.7%) were called active. This list was built around the results that the source calls inconclusive (neither active nor inactive); the mix of calls is not that of the screen. Rule as the data show it: active = activity change below about -50%; inconclusive = mostly about -30% to -49%; inactive = weaker than that.

experiment: qHTS for Inhibitors of Inflammasome Signaling: IL-1-beta AlphaLISA Primary Screen; settings: THP-1 LPS/ATP IL-1B secretion, 16 h; at 57.5 µM, hits give low values
Summary of the method: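 Secreted IL-1B measured by AlphaLISA bead assay after 16 h compound exposure of THP-1 cells; compounds (final up to 57.5 uM) added 1 h before LPS (250 ng/mL) and ATP (1.25 mM) stimulation; lower signal means less secretion.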
% is scaled to controls: 0 for no effect and ±100 for the full control effect.

Row | Structure (SMILES) | activity change
1 | CC(C)COc1ccc(C(=O)OC2CC(C)(C)OCC2CN(C)C)cc1 (configuration not stated) | inconclusive: -44.2%
2 | COc1ccc(-c2cc(C(=O)OCC(=O)N(C)C3CCS(=O)(=O)C3)c3ccccc3n2)cc1OC (configuration not stated) | active: -62.2%
3 | CCOc1cc(C)nc(N2CCN(C3CCCCC3)CC2)n1 | inconclusive: -32.8%
4 | ClC1(CNc2ccccc2)CCN(Cc2ccccc2)CC1 | inconclusive: -41.3%
5 | COC(=O)C1CCN(C(=O)Nc2ccccc2)CC1 | active: -105%
6 | C[C@H](CO)N1C[C@H](C)[C@@H](CN(C)S(=O)(=O)c2ccc(F)cc2)Oc2c(NC(=O)NC3CCCCC3)cccc2C1=O | active: -56.2%
7 | CN(C)C(=O)CCc1ccc2c3c([nH]c2c1)[C@]1(CCc2ccccc2)[C@@H](C(=O)N2CCCCC2)C[C@H](CC(=O)NCCC2=CCCCC2)C(=O)N1CC3 | inactive: -14.8%
8 | Cc1ccc(NS(=O)(=O)c2c(C)[nH]c(C)c2C(=O)N2CCCC2)cc1Cl | inconclusive: -49.7%
9 | CC(C)(C)OC(=O)NCCCC[C@H](NC(=O)c1[nH]cnc1C(=O)Nc1ccccc1)C(=O)OC(C)(C)C | inconclusive: -37.4%
10 | O=C1CCC[C@@H]2C[C@@]3(C[C@@H]4CCN1[C@H]24)Nc1cc(Cl)c(Cl)cc1NC3=NCc1ccccc1 | inactive: -18.6%
11 | COc1ccccc1C(=O)Nc1c(C(=O)N2CCN(C)CC2)oc2ccccc12 | active: -60%
12 | CCOC(=O)c1nnc2cc(-c3ccc(Br)cc3)nn2c1C | inactive: 12.2%
13 | CCOc1cc(/C=C2\SC(=N)N(c3nonc3N)C2=O)ccc1OCCN1CCOCC1 | inactive: -29%
14 | COCCn1c(SCc2ccc(OC)c(F)c2)nc2ccccc2c1=O | inconclusive: -47%
15 | CC(=O)OCC1=C(C(=O)O)N2C(=O)C(NC(=O)c3ccc(COc4ccc(Cl)cc4)o3)C2SC1 (configuration not stated) | inconclusive: -39.8%
16 | O=C(N/N=C/c1cn(-c2ccccc2)nc1-c1cc2ccccc2o1)c1ccncc1 | inconclusive: -36.2%
17 | COc1ccc(N2CCN(C(=O)CNC(=O)c3cn(-c4ccccc4OC)c(=O)c4ccccc34)CC2)cc1 | inconclusive: -38.9%
18 | O=Cc1ccc(Oc2cc(-c3ccccc3)nc(-c3ccccc3)n2)cc1 | inconclusive: -37.5%
19 | CC(C)n1c(SCC(=O)Nc2nc3c(s2)CCCC3)nc2c1c(=O)n(C)c(=O)n2C | inconclusive: -42.3%
20 | COc1ccc(NC(=O)CN2C(=O)NC(C)(c3ccc(C)cc3)C2=O)cn1 (configuration not stated) | inactive: 9.43%
21 | CCOC(=O)C=C1CCN(c2ncc(C(F)(F)F)cc2Cl)CC1 | inactive: -7.02%

Row | Structure (SMILES) | activity change
22 | Cc1ccc(CN2CCC(c3cc(-c4cccs4)n[nH]3)CC2)cc1 | active: -86.3%
23 | Cc1cccnc1C(NC(=O)C1CCN(CCOc2ccc(F)cc2)CC1)c1ccc(F)cc1 (configuration not stated) | inconclusive: -49.4%
24 | COc1ccc(CN2C(=O)C(CC(C)C)Nc3ncnc(N4CCN(c5ccccc5)CC4)c32)cc1 (configuration not stated) | inconclusive: -34.3%
25 | CCOC1=C2[C@H](c3ccccc3Cl)N(S(=O)(=O)c3ccc(C)cc3)C[C@H]2C(C#N)(C#N)C(C#N)(C#N)C1 | inconclusive: -34.1%
26 | c1ccc(-c2n[nH]c(-c3ccccn3)n2)nc1 | inactive: 10.1% and inactive: -9.56%
27 | O=c1c2c3c(sc2ncn1/N=C/c1ccc([N+](=O)[O-])o1)CCCC3 | active: -89.3%
28 | Cc1cc(C)c2c(CC(=O)NCCc3ccccc3)coc2c1 | inconclusive: -31.7%
29 | Cc1ccc(NS(=O)(=O)c2ccc(C(=O)N3CC(C)CC(C)C3)cc2)cc1 (configuration not stated) | inactive: 21.5%
30 | CCN1C(=O)C(O)(CC(=O)/C=C/C=C/c2ccccc2)c2ccccc21 (configuration not stated) | inconclusive: -49%
31 | CCC(C)Nc1nc2ccccc2n2c(C)nnc12 (configuration not stated) | inactive: -22.2%
32 | CC(=O)N1CCN(c2ccccc2NC(=O)COc2cc(C)cc(C)c2)CC1 | inconclusive: -48.8%
33 | Cc1ccc(C)c(S(=O)(=O)N2CCN(C(=O)c3cc(S(=O)(=O)NCc4ccccc4)ccc3C)CC2)c1 | inconclusive: -39.7%
34 | COc1ccc(/C=C2\CCCC3C2=NN(C(=O)c2scnc2C)C3c2ccc(OC)cc2)cc1 (configuration not stated) | inconclusive: -34.2%
35 | COc1ccccc1/C=C/C=N/n1c(-c2ccccc2)n[nH]c1=S | inactive: 26.3%
36 | COCCN1CC(CNC(=O)c2cc(COc3ccc(C)c(C)c3)on2)CC1=O (configuration not stated) | inactive: 8.62%
37 | CC1(c2ccc(Cl)cc2)NC(=O)N(CC(=O)N2CCc3ccccc3C2)C1=O (configuration not stated) | inconclusive: -38.6%
38 | COc1ccc(NC(=O)C(c2ccnc3ccccc23)n2c(=O)c(-c3ccco3)nc3ccccc32)cc1 (configuration not stated) | inactive: -3.76%
39 | O=C1c2ccccc2NC(c2c(Cl)cccc2Cl)N1Cc1ccccc1 (configuration not stated) | inconclusive: -39%
40 | COC(=O)c1cc(NC(=O)N2c3ccccc3Sc3ccccc32)cc(C(=O)OC)c1 | inactive: -7.27%
41 | COc1cc(C(=O)Nc2nc(-c3ccc(F)cc3)cs2)ccc1OCC(=O)N1CCOCC1 | inconclusive: -44.7%
42 | COc1cc(-c2nc(C(=O)NC3CCCCC3)cc3c2[nH]c2ccccc23)cc(OC)c1OC | inconclusive: -32.9%

Row | Structure (SMILES) | activity change
43 | N/C(=N\N=C/c1ccc(Br)cc1)N/N=C\c1ccc(Br)cc1 | active: -64.1%
44 | O=C(NNc1ccccc1[N+](=O)[O-])Nc1ccc(F)cc1 | inactive: -3.25%
45 | Cc1nnc(SCC(=O)N/N=C/c2cn(-c3ccccc3)nc2-c2ccccc2)n1-c1ccccc1 | active: -78.4%
46 | CN(c1ccccc1)S(=O)(=O)c1ccc(C(=O)NCc2ccccc2F)cc1 | inactive: -28.9%
47 | O=C(Cc1cccc([N+](=O)[O-])c1)Nc1ccc(C(=O)N2CCCCC2)cc1 | inconclusive: -33.8%
48 | COc1cc(Cl)c(C)cc1NC(=O)CSC1=NCCS1 | inconclusive: -31%
49 | COc1ccc(-c2nnc(Nc3ccc(CC(N)=O)cc3)c3ccccc23)cc1 | inconclusive: -35.4%
50 | Nc1cc2ccncc2c2ccccc12 | inconclusive: -48.5%
51 | Cc1cc(=O)[nH]c(SCC(=O)N2CCC(Cc3ccccc3)CC2)n1 | inconclusive: -40.3%
52 | COc1ccc(NC(=O)/C=C/c2cccc(C(F)(F)F)c2)cn1 | inconclusive: -40.7%
53 | CC(=O)NC(CC(=O)Nc1nc(-c2ccc(N(C)S(C)(=O)=O)cc2)cs1)c1ccccc1 (configuration not stated) | inconclusive: -41.7%
54 | COc1ccc(C(CNC(=O)c2cccc(NS(=O)(=O)c3ccc(C)c(F)c3)c2)N2CCOCC2)cc1 (configuration not stated) | inconclusive: -31.7%
55 | O=C(CSC1=N/C(=C/c2ccco2)C(=O)N1c1ccc(OC(F)F)cc1)NC1CCS(=O)(=O)C1 (configuration not stated) | inconclusive: -44%
56 | C[n+]1ccn(CC(=O)c2cc(C(C)(C)C)c(O)c(C(C)(C)C)c2)c1 | inconclusive: -31.2%
57 | CC(=O)Nc1ccc(C2=CC(=O)C[C@H](c3ccc(Cl)cc3)C2)cc1 | inconclusive: -36.6%
58 | C/C(=N\Nc1cc(N2CCOCC2)nc(C)n1)c1ccc(F)cc1 | inconclusive: -39.3%
59 | CN(C)C1C(=O)c2ccccc2C1=O | inactive: -1.27%
60 | CC(C)NC(=O)NC(=O)CSc1nnc(COc2ccccc2F)n1C(C)C1CC2CCC1C2 (configuration not stated) | active: -52.4%
61 | O=C(/C=C/c1ccccc1)N1CCN(Cc2nc3ccccc3c(=O)[nH]2)CC1 | inactive: -19.2%
62 | Cc1ccc(C(=O)N2CCCC(CCC(=O)N3CCN(c4ccccn4)CC3)C2)cc1C (configuration not stated) | inconclusive: -33.6%
63 | COC(=O)c1ccc(NC(=O)Nc2ccc(F)cc2)cc1 | inconclusive: -33.9%

Row | Structure (SMILES) | activity change
64 | Cc1ccc2nc(C3CCCCC3)c(Cc3cccc(Cl)c3)n2c1 | inactive: -7.4%
65 | NC(=O)COC(=O)/C=C/c1ccc2ccccc2n1 | active: -101%
66 | COc1ccccc1N1CCN(CCCCOc2cccc3ccccc23)CC1 | active: -56.5%
67 | CCCN(CC(=O)Nc1ccccc1C)C(=O)C1CCN(S(=O)(=O)c2ccc(C)c(C)c2)CC1 | inconclusive: -37.7%
68 | CCC(=O)NC(=S)Nc1cccc(NC(=O)c2ccccc2Cl)c1 | inconclusive: -30.8%
69 | CCOc1ccc(S(=O)(=O)N2CCN(Cc3ccccc3)CC2)c2cccnc12 | inconclusive: -31.4%
70 | O=C1N=C(N2CCc3ccccc3C2)S/C1=C\c1ccc(O)cc1 | active: -63.2%
71 | CC1CCN(CCCNC(=O)c2cc3c(Cl)nc4ccccc4c3s2)CC1 | active: -69.8%
72 | COc1ccc2cc(C(=O)C3CCCN(Cc4cnc(N5CCOCC5)s4)C3)ccc2c1 (configuration not stated) | inconclusive: -39.1%
73 | CCCCn1c(=O)c2c(nc3n2CCCN3Cc2ccccc2)n(C)c1=O | inactive: 25.6%
74 | COc1cccc(CN2CCNC(=O)C2CC(=O)NCCn2ccc3ccccc32)c1OC (configuration not stated) | inactive: -4.3%
75 | O=C(CN1C(=O)C(=O)N(C2CCCC2)C1=O)Nc1ccccc1OC(F)F | inactive: 0%
76 | C[C@@H]1CCCCO[C@H](CN(C)Cc2ccc(Cl)c(Cl)c2)[C@H](C)CN([C@@H](C)CO)C(=O)c2cc(NC(=O)Nc3ccc(F)cc3)ccc2O1 | inconclusive: -35.5%
77 | Cc1ccc(-c2cc(-c3ccc(F)cc3)n[nH]2)c(O)c1 | active: -61.3%
78 | CC(C)N(Cc1cc2ccccc2[nH]c1=O)C(=O)C(C)(C)C | inactive: 17.3%
79 | N#CCSc1nc2sc3c(c2c(=O)n1C1CCCCC1)CCCC3 | inconclusive: -41.6%
80 | CSc1cccc(CN2CCC(CO)(Cc3cccc(C(F)(F)F)c3)CC2)c1 | active: -96.1%
81 | CCC[C@@H](OS(N)(=O)=O)[C@@H](Cc1ccccc1)C(=O)OCC | inactive: 27.3%
82 | Cc1ccc(-c2cc(C(=O)NCCCN3CCOCC3)c3ccccc3n2)cc1 | inconclusive: -31.6%
